The source of these data is the RNAGym collection of RNA variant scans (doi:10.7554/elife.90254).

B1: LINE1-full (parent)
chain: UACGUAGGUGGUUUUCCCCUGAUAGUGCUAAGGGGGCCUGGAAGUUUGGACUGGGCAGAGCUCAACACAGCGUGGCAAAGUGGCUGUGGCUAGACUGCCUCUCUGGAUUCCUCGUCACUCAGCAGGGCAUCUCUGAGAGAAAUGCC

Read counts are not given, so values of variants with three or more changes are uncertain.

Variants of B1 are the subject of the data set. The experiment in a line: self-cleavage, relative activity (ratio to wild type); higher = more cleavage; in vitro, sequencing; the parent is a self-cleaving ribozyme.
With U13C G72A U96C, the self-cleavage was 0.02.

Turning to U13C C19U U115C A140U, the self-cleavage is 1.11. The same measure for U13C U20C U46C A124G: 1.48.

Consider U13C A22G U85C G93U, for which the self-cleavage stood at 0.26. For U13A A42G A141G the value was 0.75. For the variant U13C A64G U73A A141C, the self-cleavage came to 0.44.

With U13C U14C A43G U85A A107G A138G A140G, the self-cleavage worked out at 0.4. As for U13A A121G U143C, the self-cleavage was found to be 1.8. Regarding U13C G33A U62C A78G A79G, the self-cleavage was 0. Regarding U13C A42U A57G U104C, the self-cleavage is 0.2. As for U13A A79G U100C, the self-cleavage came to 1.92.

As to U13A C16U U45C U112A A138G, the self-cleavage is 0.81.

Consider U13C U29A A78C, for which the self-cleavage is 1.07.

Take U13A U15G U45C C66U U91C U112C: the self-cleavage is 0. U13A U39A U73C A141G: the self-cleavage came to 1.07. For U13C A64G C90U A141G the value was 0.05; for U13C A31U A121U, 0.73. Regarding U13C A31C G48A A77G U81C, the self-cleavage turned out to be 1.84. As to U13C G106A U132A, the self-cleavage stood at 1.65. U13C C38A U104C A140G: the self-cleavage was 0.66. For U13C U26G A57G U96A A129G the value was 0. The same measure for U13C A22G A77G A94G A142G: 0.97; for U13C C19U A24G A140G: 1.01; for U13C A43G U81C U112C: 1.84. The same measure for U13C A22U G36U U115C: 1.3; for U13C A77G A136U: 1.17. For U13C A43G U52C C90U U134A, the self-cleavage amounted to 0.1. Regarding U13A A30G A42G A121G, the self-cleavage amounted to 0. The same measure for U13C A42G U47C A121U A129G U134C: 2.3. For U13C U26G U85A the value was 0.2.

Regarding U13C A59G C128A, the self-cleavage stood at 0.08. As to U13C A42G A59G, the self-cleavage is 0.19.

U13C G35C A59U U108C A140G: the self-cleavage came out at 0.93. As to U13C G33C U115C, the self-cleavage was 1.23.

As for U13C U26C A50G G114A, the self-cleavage came out at 0.82. Turning to U13C A121G A136G, the self-cleavage is 1.56. For U13C A24G G36C A67U the value was 0.14. As for U13C U26C A94G A129G, the self-cleavage was 1.84. For U13A A64U U73A U100C C110U A136G the value was 0.6. With U13C A67G A79G A140U, the self-cleavage amounted to 0.49. Consider U13C C51U U52C A94U U115C, for which the self-cleavage worked out at 0.85.

Take U13C C37A A43G U45C: the self-cleavage was 0.86. In the case of U13C U14C A77U U130C U134A, the self-cleavage came to 0.89. For U13C A79U U112C A121G C146U the value was 1.65; for U13C A57U A67G A107G A117U, 0. For the variant U13A A31U U130C U134A, the self-cleavage was 1.24. Turning to U13C U14C A107G A121U, the self-cleavage amounted to 1.41.

On to U13A U87A A92G U119G, for which the self-cleavage was found to be 0.32. For U13C C84U A138U the value was 0.1.

Turning to U13A A67G U81A U134A, the self-cleavage came to 0.32. With U13C A24G A69U, the self-cleavage is 0. On to U13C U14A U23C A59G A140U, for which the self-cleavage is 0.32. The same measure for U13C A64U G74C U100C U112C U115C: 1.49. The same measure for U13C A64G U115C: 1.08. The same measure for U13C U20A U73C A121U: 1.5; for U13C C66U A78G G86C A141G: 0.07. Take U13C A24G C103U: the self-cleavage was 1.41. The same measure for U13C U26C G60C A67G U91A U134C: 0. Consider U13A U46A C68U C99U, for which the self-cleavage worked out at 0.03.

U13C C61A A124C: the self-cleavage is 0.07. For U13C U20C U115A A136G the value was 1.7; for U13A U39A A64G A142G, 0.14; for U13C G80C U119A A124U, 1.04.

On to U13C A42G U130C, for which the self-cleavage came to 1.31. On to U13C A43G U73A C145U, for which the self-cleavage came out at 1.13. U13C U14C U109C U130C: the self-cleavage was 0.37. The same measure for U13C G34U U85C U87C U109A G135A: 0.3.

U13C G54A A107G A117C: the self-cleavage was determined as 1.99. Turning to U13C U14C G34A U96A U119A A141G U143C, the self-cleavage amounted to 0.2. The same measure for U13C C17U U29C U47A U130A: 0.74. Turning to U13A U85A U130C, the self-cleavage was 0.07.

Regarding U13C G34A A117C, the self-cleavage was determined as 1.31. For U13C U23A U73G the value was 1.06; for U13A U47C A94G, 0.11. For U13C U15C G72A the value was 1.48. Consider U13A U20G A22G A67G C68A A121U, for which the self-cleavage came to 0.18.

As for U13C U20C C61A A141G, the self-cleavage was found to be 0.06. With U13C U15C C71U, the self-cleavage came out at 0.88.

With U13C A57G A65G G114A, the self-cleavage amounted to 0.14. On to U13A G40U U100C, for which the self-cleavage was found to be 1.22. For U13C A121U A142G the value was 1.74. Consider U13C A69G C120U, for which the self-cleavage is 0.8. Take U13C A136G A141G: the self-cleavage is 2.35. For U13C A43G U46A the value was 0.77.
